Out of some 310,000 compounds screened, about 14,000 (4.5%) showed an effect of 50% or more. Effects have a minus sign here. Some of the results follow.
Each molecule was assayed against human ether-à-go-go-related gene (hERG) potassium channel (human, UniProt Q12809) (assay: primary screen, population patch clamp on CHO cells stably expressing hERG).
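Further: peak tail current of the secondary pulse compared with the same well before compound.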

Sequence of human ether-à-go-go-related gene (hERG) potassium channel (Q12809 whole entry, looked up): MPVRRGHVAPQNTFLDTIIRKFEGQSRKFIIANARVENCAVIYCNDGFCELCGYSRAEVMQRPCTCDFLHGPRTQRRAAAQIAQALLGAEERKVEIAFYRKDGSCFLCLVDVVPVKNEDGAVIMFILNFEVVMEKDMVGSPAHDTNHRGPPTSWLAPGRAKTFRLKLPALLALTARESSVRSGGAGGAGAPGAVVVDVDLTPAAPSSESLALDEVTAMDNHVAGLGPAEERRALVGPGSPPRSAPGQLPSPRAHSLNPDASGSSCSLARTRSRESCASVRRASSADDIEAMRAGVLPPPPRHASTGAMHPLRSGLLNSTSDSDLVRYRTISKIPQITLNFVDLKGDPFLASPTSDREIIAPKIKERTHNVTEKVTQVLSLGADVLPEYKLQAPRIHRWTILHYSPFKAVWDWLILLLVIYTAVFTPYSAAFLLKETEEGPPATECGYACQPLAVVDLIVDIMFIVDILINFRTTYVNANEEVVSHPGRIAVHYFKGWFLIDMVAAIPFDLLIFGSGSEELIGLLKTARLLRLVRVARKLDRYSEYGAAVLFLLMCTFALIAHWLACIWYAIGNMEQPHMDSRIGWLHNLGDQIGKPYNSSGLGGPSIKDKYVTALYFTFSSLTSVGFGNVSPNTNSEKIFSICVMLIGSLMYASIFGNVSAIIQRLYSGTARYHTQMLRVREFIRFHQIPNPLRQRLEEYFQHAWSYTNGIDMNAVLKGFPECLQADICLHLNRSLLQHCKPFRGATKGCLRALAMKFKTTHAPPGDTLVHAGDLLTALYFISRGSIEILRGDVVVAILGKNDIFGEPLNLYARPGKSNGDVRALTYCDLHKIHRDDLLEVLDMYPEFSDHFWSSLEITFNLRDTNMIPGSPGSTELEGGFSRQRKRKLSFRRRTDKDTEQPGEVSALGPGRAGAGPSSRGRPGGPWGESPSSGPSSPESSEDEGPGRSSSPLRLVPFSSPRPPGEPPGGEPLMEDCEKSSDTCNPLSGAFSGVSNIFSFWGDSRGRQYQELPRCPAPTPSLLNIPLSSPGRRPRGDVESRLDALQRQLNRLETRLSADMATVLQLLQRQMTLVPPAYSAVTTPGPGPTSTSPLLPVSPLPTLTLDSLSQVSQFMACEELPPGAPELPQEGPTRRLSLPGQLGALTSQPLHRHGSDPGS

Compound | hERG current change (%, negative = inhibition) at 10uM [%]
NC(=O)c1cccc2ccccc12 | 1.94
CC(C)(C)c1cc(Cl)ccc1OCCn1ccnc1.O=C(O)C(=O)O | -5.05
COc1ccccc1CCNC(=O)CCn1c(=O)oc2ccccc21 | 8.54
COc1cc(Cl)c(C)cc1NC(=O)CSc1cc(Cl)ccc1Cl | 7.31
CC(=O)c1c(C)nc(Nc2nc3ccccc3s2)nc1C | 4.5
Cc1cc(O)cc(O)c1C(=O)Cc1cnn(-c2ccccc2)c1 | -0.738
Cc1cccc(N2CCN(S(=O)(=O)c3ccc4c(c3)NC(=O)CS4)CC2)c1C | 14.5
COc1cc(-c2ccc3oc(-c4ccsc4)cc3c2)cc(OC)c1OC | 15.3
Cc1[nH][nH]c(=O)c1N=Nc1ccc(F)cc1 | 10.5
O=S(=O)(c1ccc2ccccc2c1)N1CCCCCC1 | -1.76
CCCCCCNC(=O)N[C@@H](Cc1ccc(O)cc1)C(=O)NCCC[C@H]1CN2C(=NC[C@H]2C)N1CC1CCC1 | 2.98
CCOc1ccc(CCNC(=O)COC(=O)/C=C/c2ccccc2)cc1OCC | 2.02
Cc1cc(C)n2c(SCC(=O)NC3CCCCC3)nnc2n1 | 31.1
CCOc1ccc(CCNS(=O)(=O)c2ccc3c(c2)oc(=O)n3C)cc1OCC | 1.53
COc1ccc(N2CCN(Cc3nc4c(c(=O)[nH]c(=O)n4C)n3Cc3cccc(Cl)c3)CC2)cc1 | -16.5
Cc1cc(C(C)(C)C)n2nc(C)c(-c3ccccc3)c2n1 | 13.9
O=C(CNC(=O)c1ccc(Br)o1)Nc1cccc(-c2cnc3ccccc3n2)c1 | -0.706
Cc1c(C(=O)N/N=C/c2ccoc2)cccc1[N+](=O)[O-] | 9.67
CC(=O)c1cccc(-n2c(CCC(=O)O)ccc2-c2ccc(C)cc2)c1 | 10.1
CN(C)C=Nc1nonc1-c1ccccc1 | -1.32
COc1cc(CCC(=O)OCC(=O)Nc2ccc(C)cc2Br)cc(OC)c1OC | 10.2
O=C(O)CC1OCC=C2CN3CCC45C6=CC(=O)C(=O)C([N+](=O)[O-])=C6NC4C1C2CC35 (stereo not drawn) | 10.1

Compound | hERG current change (%, negative = inhibition) at 10uM [%]
Fc1ccc(N2CCN(C3=Nc4cccc5cccc3c45)CC2)cc1 | -77
COc1ccc(-c2csc(Nc3ccccc3)[n+]2Cc2ccccc2)cc1.[Br-] | 27.6
O=[N+]([O-])c1cccc(S(=O)(=O)N2CCCCC2c2cccnc2)c1 (stereo not drawn) | -20
Cc1ccc(C(=O)O)cc1NC(=S)NCCc1ccccc1 | 0.261
CCCCCCCCOC1OC(CO)C(O)C(O)C1NC(C)=O (stereo not drawn) | 4.74
CCOc1ccc(-n2nnnc2SCC(=O)c2ccccc2)cc1 | -2.66
CCOC(=O)N1CCN(CCC(=O)c2ccc(Cl)cc2)CC1.Cl | -40.9
COc1ccccc1CN1C(=NC(=O)C2CCCCC2)SC2CS(=O)(=O)CC21 (stereo not drawn) | 19.1
COc1ccc(CCNC(=O)CSc2nncs2)cc1 | 6.79
CCOc1ccc(CCNC(=O)CCC(=O)N2CCOc3ccccc32)cc1OCC | -7.82
COc1ccc(CCNC(=O)CSc2nc(-c3ccco3)cc(C(F)(F)F)n2)cc1OC | -15.8
NNC(=O)c1cn2ccccc2n1 | -3.57
S=C(NCC1CCCO1)Nc1ccc(Cl)c(Cl)c1 (stereo not drawn) | -17.2
Cc1ccc(C2=NNC(=O)C(c3c[nH]c4ccccc34)C2)cc1 (stereo not drawn) | 23.3
CSc1ccc(/C=N\NC(=O)CC(=O)NC(C)C)cc1 | 7.48
O=S(=O)(c1ccc(Br)cc1)c1nc(-c2ccccc2)oc1N1CCOCC1 | -30.7
COc1cc(/C=N/NC(=O)CCc2ccccc2)ccc1O | -1.02
CC(=O)c1ccc(OCC(=O)OC(C)C(=O)NC2CCCCC2C)cc1 (stereo not drawn) | 26.9
[N-]=[N+]=CC(=O)C(Cc1ccccc1)N1C(=O)c2ccccc2C1=O (stereo not drawn) | 11.6
O=C(N/N=C/c1cn(CCOc2ccccc2)c2ccccc12)c1ccncc1 | -12
O=C(Nc1ccccc1Oc1cccnc1)C1CCCN(Cc2ccc(F)cc2)C1 (stereo not drawn) | -36.2
CCCC(C)NS(=O)(=O)c1ccc(OC)c(C)c1 (stereo not drawn) | -7.85

Compound | hERG current change (%, negative = inhibition) at 10uM [%]
CCN(CC)S(=O)(=O)c1cc(NC(=O)C2CCN(c3ncnc4sc(C)c(C)c34)CC2)ccc1Cl | 23.3
C=CCn1c(O)c(C2=c3ccccc3=NC2=O)c2ccccc21 | 15
O=C(Nc1cc([N+](=O)[O-])ccc1C(=O)NCCN1CCOCC1)c1ccccc1 | -44.9
Cc1ccc(NC(=O)CNc2ccc(Cl)cc2F)cc1 | -5.7
COc1ccccc1NC(=O)Cn1cnc2c(nc3n2CCCCC3)c1=O | -11.4
O=C(CN1CCN(S(=O)(=O)c2ccccc2)CC1)Nc1ccc([N+](=O)[O-])cc1 | -73.4
Cc1ccccc1CSc1nnc(-c2cccnc2)n1N | 3.34
O=C(OCc1nc2ccsc2c(=O)[nH]1)c1ccccc1 | 0.869
COC(=O)CCC(=O)N1CCCC(N2CCN(c3cccc(C(F)(F)F)c3)CC2)C1 (stereo not drawn) | -35.8
COc1cccc(NC(=O)C(NC2CCCC2)c2ccccc2)c1 (stereo not drawn) | -21.8
Cc1cccnc1NC(=O)c1ccc(Br)o1 | 32.6
CCOC(=O)c1[nH]c(C)c(C(=O)OCC(=O)NCc2ccc(Cl)cc2)c1C | -0.581
COc1ccc(/C=N/NC(=O)C(Cc2c[nH]c3ccccc23)NC(=O)OCC(C)C)cc1[N+](=O)[O-] (stereo not drawn) | 7.74
CCOc1ccccc1CNC(=O)CCn1ccc2cc(S(=O)(=O)N3CCCCC3)ccc21 | 4.73
O=S(=O)(c1ccccc1)c1nc(-c2cccc(Cl)c2)oc1N1CCOCC1 | -4.94
COc1cc2c(cc1OC)C(Nc1ccc(S(N)(=O)=O)cc1)=NC(C)(C)C2 | -10.3
O=C(c1cc(S(=O)(=O)N2CCOCC2)ccc1Cl)N1CCc2ccccc2C1 | -17.7
Cc1ccc(NC(=O)CC2S/C(=N/N=C/C=C/c3ccccc3)NC2=O)cc1Cl (stereo not drawn) | 28.3
Cc1ccc(N=Cc2c(C)[nH]n(-c3nc4ccccc4[nH]3)c2=O)cc1 | -5.88
Nc1nc2n(n1)C(c1cccs1)CC(c1ccc(F)cc1)N2 (stereo not drawn) | -33.9
COc1ccc(NS(=O)(=O)c2cccc(C(=O)NCC3CCCO3)c2)cc1 (stereo not drawn) | -0.415
COC(=O)c1cn(-c2ccccc2)nc1-c1ccc(OC)c(OC)c1 | -0.668

Compound | hERG current change (%, negative = inhibition) at 10uM [%]
O=C(CN(CCc1ccccc1)C(=O)CNS(=O)(=O)c1ccc(F)cc1)NCc1ccco1 | -19.8
COc1ccc(OC)c(Nc2nc(N)c([N+](=O)[O-])c(NCc3ccccc3)n2)c1 | 19.1
CCc1nc2c(oc3ccccc32)c(=O)[nH]1 | 5.22
COc1ccc(C(=O)Nc2nc3ccccc3s2)cc1 | 11.6
O=C1NC(=O)C(CCc2ccncc2)(CCc2ccncc2)C(=O)N1Cc1ccccc1 | -72.5
Cc1ccc(S(=O)(=O)N[C@H](C(=O)OCn2nnc3ccccc3c2=O)C(C)C)cc1 | 1.49
Cc1cc2oc(=O)c3c(c2cc1OC(=O)c1ccco1)CCCC3 | 15.2
Cc1ccccc1-c1nc(CN(C)C(C)c2ccon2)c(C)o1 (stereo not drawn) | 19.2
O=C(Nc1cccs1)Nc1cccnc1Cl | 7.97
Cc1[nH]cnc1CN1CCc2c(c3ccccc3n2C)C1=O.Cl | -15.2
COc1ccc(N(CC(=O)Nc2c(C)n(C)n(-c3ccccc3)c2=O)S(=O)(=O)c2ccc(C)cc2)cc1OC | 9.53
COc1ccccc1N(CCN1C(=O)c2cccc3cccc(c23)C1=O)C(=O)c1ccncc1 | 16.3
CC(=O)c1ccc(OCc2cc(C(=O)NCCc3ccc(Cl)cc3)no2)cc1 | -29.7
COc1cccc(N(C(=O)Cn2nnc(-c3cccs3)n2)C(C(=O)NC2CCCCC2)c2ccncc2)c1 (stereo not drawn) | 8
Cc1ccc(N(CC(=O)NC2CCCC2)C(=O)CCC(=O)Nc2nccs2)cc1C | 14.2
CCCCCCN1C=CC=C/C1=C/C=C(C#N)C#N | -76.5
Cc1nn(-c2ccccc2)c(Cl)c1CN(C(=O)CCl)c1cccc2ccccc12 | -29
COc1ccc(-c2nc3c(=O)n(C)c(=O)[nH]c3n2CCc2ccccc2)cc1 | 22.1
Cc1c2ccccc2cc(Cc2ccccc2)[n+]1C.[I-] | 11.4
COc1ccc(-c2nc(CS(=O)CC(=O)NCCCN3CCCC(C)C3)c(C)o2)cc1OC (stereo not drawn) | 13.8
CN(C)c1ccc(C(=O)/C=C/c2ccc(Br)cc2)cc1 | 7.69

From publication PMC4336329 (PLoS ONE, 2015)
